The target of one assay is T1, GFP-tagged PORCN-ΔNLS (UniProt Q9H237).
T1 sequence: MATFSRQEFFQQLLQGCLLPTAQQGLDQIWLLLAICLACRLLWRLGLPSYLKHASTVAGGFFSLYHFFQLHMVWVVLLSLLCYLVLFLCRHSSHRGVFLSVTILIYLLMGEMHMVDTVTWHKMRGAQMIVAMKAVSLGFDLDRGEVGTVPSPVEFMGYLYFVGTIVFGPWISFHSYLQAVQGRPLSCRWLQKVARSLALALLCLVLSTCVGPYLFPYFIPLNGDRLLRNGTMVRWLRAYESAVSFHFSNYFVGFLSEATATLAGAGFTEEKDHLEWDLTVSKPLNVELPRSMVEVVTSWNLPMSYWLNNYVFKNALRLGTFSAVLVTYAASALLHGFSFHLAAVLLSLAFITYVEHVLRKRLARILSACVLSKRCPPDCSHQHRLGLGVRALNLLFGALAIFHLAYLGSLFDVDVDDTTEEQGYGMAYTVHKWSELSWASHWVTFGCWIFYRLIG
Kind of assay: co-IP; HT1080 transiently transfected with GFP-tagged PORCN-WT or PORCN-ΔNLS, 48 h; whole cell lysates precipitated with anti-GFP antibody; blots for Ku70, Ku80, DNA-PKcs, Rad50.

The chains behind the UniProt entries cited, without tags or fusion partners.
UniProt Q92878: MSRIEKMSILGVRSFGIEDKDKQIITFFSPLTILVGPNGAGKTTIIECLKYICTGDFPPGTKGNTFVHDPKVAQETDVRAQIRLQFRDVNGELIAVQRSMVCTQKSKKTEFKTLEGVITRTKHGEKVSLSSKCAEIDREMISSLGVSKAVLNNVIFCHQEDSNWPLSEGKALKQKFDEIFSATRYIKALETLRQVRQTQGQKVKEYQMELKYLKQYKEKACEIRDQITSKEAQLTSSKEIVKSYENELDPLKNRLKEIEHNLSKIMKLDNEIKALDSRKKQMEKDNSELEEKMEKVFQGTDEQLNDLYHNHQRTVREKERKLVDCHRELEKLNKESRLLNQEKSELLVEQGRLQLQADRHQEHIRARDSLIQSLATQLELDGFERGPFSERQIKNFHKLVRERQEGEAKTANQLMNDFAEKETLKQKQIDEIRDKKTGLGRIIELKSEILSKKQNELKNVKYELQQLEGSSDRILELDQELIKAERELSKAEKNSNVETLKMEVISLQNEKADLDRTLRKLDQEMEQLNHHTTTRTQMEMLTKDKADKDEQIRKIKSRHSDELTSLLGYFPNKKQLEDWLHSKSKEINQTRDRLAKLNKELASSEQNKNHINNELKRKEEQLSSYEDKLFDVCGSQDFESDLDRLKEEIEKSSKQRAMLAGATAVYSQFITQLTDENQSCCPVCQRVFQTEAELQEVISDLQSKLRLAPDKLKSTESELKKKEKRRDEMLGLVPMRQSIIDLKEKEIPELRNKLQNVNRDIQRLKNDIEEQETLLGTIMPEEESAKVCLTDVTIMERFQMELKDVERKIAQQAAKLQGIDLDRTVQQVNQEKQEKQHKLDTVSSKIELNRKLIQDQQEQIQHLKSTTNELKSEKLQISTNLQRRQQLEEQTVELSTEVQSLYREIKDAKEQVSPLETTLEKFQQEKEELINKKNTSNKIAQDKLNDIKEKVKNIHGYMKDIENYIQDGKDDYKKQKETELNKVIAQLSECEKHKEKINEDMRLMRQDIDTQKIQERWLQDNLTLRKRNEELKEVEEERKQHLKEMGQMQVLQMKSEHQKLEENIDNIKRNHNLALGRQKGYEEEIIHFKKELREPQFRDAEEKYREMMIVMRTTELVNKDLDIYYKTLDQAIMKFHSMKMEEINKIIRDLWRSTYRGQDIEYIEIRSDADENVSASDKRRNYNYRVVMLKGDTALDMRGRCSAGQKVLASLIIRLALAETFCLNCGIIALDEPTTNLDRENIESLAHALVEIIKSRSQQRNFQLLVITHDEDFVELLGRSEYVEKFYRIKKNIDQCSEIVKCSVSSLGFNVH
UniProt P13010: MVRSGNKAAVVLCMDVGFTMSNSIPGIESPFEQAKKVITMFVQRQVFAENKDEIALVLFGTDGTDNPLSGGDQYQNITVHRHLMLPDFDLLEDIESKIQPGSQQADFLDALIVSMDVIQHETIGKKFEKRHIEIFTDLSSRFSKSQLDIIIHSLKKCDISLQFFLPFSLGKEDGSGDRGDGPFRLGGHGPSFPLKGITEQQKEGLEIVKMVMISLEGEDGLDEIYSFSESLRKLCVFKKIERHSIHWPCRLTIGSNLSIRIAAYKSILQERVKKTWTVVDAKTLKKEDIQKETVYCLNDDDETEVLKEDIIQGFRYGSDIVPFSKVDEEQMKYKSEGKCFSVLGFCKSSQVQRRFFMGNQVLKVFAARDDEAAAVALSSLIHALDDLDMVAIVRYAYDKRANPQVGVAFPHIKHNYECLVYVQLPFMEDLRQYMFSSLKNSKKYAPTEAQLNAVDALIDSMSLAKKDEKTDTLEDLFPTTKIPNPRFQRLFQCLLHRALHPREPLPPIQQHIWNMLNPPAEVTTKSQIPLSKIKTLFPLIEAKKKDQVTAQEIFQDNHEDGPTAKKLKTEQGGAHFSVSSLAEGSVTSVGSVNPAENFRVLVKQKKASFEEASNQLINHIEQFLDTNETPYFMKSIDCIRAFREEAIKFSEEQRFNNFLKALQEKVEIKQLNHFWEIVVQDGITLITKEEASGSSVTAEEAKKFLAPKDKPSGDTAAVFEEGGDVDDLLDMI
UniProt P78527: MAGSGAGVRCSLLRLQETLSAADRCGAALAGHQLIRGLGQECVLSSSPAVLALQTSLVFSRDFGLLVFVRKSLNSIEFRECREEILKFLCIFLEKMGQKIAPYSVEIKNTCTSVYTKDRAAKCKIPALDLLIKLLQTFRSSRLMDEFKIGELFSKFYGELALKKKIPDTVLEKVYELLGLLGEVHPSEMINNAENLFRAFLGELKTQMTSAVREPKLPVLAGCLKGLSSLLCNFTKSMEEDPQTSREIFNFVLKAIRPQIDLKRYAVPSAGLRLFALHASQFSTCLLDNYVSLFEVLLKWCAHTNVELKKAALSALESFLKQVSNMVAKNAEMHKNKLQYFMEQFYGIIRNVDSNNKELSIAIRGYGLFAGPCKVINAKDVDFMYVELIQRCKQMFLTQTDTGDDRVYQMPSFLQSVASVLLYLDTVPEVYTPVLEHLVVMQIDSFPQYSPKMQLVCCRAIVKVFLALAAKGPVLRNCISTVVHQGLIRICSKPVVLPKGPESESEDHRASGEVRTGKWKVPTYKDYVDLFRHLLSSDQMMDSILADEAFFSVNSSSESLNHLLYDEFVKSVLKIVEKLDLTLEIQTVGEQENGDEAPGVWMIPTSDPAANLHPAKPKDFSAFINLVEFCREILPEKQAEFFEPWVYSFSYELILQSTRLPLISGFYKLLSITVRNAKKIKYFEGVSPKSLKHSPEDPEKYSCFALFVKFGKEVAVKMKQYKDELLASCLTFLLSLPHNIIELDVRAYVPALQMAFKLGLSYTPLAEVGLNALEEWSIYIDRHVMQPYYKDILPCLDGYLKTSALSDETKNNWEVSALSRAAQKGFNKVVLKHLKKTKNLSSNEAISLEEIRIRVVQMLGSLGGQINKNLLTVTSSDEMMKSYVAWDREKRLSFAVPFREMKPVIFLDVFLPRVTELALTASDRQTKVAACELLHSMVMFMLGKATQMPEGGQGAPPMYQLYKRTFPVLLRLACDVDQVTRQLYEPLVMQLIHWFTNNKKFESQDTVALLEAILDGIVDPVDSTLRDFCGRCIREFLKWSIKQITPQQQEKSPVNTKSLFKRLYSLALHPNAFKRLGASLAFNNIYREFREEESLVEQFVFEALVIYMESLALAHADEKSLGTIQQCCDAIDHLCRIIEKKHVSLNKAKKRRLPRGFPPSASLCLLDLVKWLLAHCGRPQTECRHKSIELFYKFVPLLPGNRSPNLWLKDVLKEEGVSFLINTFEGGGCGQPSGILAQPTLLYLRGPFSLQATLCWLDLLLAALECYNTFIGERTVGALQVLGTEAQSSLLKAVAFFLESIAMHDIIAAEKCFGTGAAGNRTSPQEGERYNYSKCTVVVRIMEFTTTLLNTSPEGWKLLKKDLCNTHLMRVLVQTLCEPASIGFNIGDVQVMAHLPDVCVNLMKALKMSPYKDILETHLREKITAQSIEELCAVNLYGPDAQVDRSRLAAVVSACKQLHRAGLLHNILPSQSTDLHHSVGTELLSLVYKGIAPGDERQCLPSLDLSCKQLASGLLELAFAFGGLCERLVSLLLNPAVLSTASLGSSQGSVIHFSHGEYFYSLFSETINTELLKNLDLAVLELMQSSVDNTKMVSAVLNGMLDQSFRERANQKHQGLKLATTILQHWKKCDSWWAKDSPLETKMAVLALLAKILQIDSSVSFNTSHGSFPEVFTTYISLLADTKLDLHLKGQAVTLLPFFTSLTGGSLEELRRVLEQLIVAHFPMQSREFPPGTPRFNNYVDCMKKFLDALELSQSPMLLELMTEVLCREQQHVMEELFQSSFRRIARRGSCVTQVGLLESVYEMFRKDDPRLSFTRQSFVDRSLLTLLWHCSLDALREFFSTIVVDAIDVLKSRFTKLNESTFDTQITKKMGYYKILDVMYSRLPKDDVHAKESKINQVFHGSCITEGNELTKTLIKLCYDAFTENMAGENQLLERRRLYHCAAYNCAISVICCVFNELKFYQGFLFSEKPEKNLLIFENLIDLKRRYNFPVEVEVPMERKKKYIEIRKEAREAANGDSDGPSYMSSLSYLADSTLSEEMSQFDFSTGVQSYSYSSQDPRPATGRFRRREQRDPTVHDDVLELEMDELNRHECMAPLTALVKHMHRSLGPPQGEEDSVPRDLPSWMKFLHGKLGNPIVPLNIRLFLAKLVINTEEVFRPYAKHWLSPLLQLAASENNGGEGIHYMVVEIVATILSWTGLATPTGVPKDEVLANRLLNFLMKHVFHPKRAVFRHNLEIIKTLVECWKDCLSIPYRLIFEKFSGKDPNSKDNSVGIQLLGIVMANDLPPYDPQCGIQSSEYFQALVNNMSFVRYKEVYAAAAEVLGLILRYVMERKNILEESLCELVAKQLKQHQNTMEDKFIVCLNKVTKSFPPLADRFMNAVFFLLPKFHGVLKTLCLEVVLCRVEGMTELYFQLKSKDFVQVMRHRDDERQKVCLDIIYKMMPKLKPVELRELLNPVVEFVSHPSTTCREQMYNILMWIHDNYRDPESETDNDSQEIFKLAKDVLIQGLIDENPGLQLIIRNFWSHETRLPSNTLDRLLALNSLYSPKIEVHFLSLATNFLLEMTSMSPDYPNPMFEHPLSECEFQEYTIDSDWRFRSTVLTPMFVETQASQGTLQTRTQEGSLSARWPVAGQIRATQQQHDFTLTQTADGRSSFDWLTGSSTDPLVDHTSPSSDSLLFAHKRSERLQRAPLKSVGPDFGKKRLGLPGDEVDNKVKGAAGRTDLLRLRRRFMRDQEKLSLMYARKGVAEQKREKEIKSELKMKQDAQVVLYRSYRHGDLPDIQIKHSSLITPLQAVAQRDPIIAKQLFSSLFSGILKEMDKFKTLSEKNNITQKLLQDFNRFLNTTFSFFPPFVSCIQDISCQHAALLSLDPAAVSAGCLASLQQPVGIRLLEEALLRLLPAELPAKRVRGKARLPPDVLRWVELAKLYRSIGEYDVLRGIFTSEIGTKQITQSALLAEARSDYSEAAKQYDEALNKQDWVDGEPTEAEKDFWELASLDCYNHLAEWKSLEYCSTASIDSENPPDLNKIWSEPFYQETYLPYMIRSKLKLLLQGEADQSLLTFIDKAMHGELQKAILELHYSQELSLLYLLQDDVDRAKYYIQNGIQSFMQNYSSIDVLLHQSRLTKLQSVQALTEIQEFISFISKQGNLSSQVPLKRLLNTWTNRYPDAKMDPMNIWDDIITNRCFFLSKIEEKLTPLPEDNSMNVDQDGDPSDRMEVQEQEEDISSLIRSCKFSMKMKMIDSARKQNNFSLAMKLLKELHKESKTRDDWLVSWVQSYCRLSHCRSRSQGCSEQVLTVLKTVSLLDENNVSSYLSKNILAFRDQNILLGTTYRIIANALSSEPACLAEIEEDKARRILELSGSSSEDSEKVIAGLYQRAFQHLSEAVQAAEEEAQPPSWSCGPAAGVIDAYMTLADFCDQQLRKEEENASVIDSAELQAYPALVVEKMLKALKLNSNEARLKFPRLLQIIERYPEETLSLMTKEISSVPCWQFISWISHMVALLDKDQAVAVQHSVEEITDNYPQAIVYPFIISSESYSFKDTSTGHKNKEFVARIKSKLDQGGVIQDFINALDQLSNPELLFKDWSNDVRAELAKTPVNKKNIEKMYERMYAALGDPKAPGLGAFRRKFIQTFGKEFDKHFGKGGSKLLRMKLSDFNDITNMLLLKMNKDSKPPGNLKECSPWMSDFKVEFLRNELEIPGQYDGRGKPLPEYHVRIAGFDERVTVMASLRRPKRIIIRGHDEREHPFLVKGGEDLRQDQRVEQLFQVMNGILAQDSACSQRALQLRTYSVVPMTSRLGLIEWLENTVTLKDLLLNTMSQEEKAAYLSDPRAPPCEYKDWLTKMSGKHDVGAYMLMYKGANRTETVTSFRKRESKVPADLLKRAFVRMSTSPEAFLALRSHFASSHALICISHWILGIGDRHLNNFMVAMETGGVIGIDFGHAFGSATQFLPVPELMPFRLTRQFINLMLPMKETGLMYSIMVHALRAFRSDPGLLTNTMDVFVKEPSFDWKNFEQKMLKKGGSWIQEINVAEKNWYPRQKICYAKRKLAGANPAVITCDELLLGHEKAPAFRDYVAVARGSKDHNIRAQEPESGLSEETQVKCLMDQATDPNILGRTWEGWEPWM

In assay [1] the target is T2, GFP-tagged PORCN-WT (Porcupine) (UniProt Q9H237).
T2 sequence: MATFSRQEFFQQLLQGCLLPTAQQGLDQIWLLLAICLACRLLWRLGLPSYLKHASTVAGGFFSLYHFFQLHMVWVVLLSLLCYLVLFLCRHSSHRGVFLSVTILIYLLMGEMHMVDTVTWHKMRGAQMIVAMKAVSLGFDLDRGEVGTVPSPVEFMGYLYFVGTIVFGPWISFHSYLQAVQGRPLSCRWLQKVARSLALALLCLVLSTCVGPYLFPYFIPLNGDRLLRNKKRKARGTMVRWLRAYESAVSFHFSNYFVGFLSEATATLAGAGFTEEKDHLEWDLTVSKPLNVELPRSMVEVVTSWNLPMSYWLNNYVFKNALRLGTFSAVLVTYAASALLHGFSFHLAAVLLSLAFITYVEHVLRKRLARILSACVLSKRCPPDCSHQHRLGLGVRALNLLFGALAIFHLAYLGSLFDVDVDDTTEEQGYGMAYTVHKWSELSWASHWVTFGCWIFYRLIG
The assay is described as above.

Assay [2] has as its target T3, endogenous PORCN ΔNLS of HT1080 NLS-KO cells (human (endogenous in HT1080)) (UniProt Q9H237).
T3 sequence: T1 sequence
The assay is described as follows: co-IP; endogenous proteins, HT1080 PORCN-WT or NLS-KO cells; precipitated with anti-PORCN antibody (and, in turn, anti-Ku70, anti-Ku80 or anti-DNA-PKcs with a blot for PORCN).

The target of assay [3] is T4, endogenous PORCN (Porcupine) of HT1080 PORCN-WT cells (human (endogenous in HT1080)) (UniProt Q9H237).
T4 sequence: T2 sequence
The description is as above.

No constants are given. Whether binding was seen depends on the method and setting. Binding seen in cells or lysates may run through a third protein. Some binding calls cover weakened binding; strength is not graded here. For some assays here: Where a sequence is shown, tags or fusion partners need not be part of it.

With “Rad50, endogenous (from UniProt Q92878 1-1312)”, the binding result (with GFP-tagged PORCN-ΔNLS; in assay [1]) was “no binding” in each case.

For “Ku80 (XRCC5), endogenous (from UniProt P13010 1-732)”, the binding result is reported as “no binding” in the assay with GFP-tagged PORCN-ΔNLS, “binds” in assay [1], “no binding” in assay [2] and “binds” in assay [3].

As for “Ku70 (XRCC6), endogenous (from UniProt P12956 1-609)”, the binding result with GFP-tagged PORCN-ΔNLS is reported as “no binding”; in assay [1], “binds”; in assay [2], “no binding”; in assay [3] it was “binds”.

Turning to “DNA-dependent protein kinase catalytic subunit (DNA-PKcs), endogenous (from UniProt P78527 1-4128) (enzyme)”, the binding result in the assay with GFP-tagged PORCN-ΔNLS was “no binding”; in assay [1], “binds”; in assay [2], “no binding”; in assay [3], “binds”.

The record behind these values is publication PMC11536954.
